# Test results from PubChem BioAssay AID1476 (National Center for Advancing Translational Sciences (NCATS), 2009).
# The campaign covered roughly 200,000 compounds. About 4,500 (2.2%) were called active. Inconclusive results, whose numbers are uncertain, are shown with a selection of clear calls. The call rests on the fitted dose curve; in most records, active means well fitted inhibition curve with a large enough effect; inconclusive means small, poorly fitted or top-dose-only effect, or effect the other way; inactive means flat fitted curve, though single readings scatter. Where the call is inconclusive, the potency comes from a doubtful curve fit.
# Target: Cruzipain (Trypanosoma cruzi) (UniProt P25779)
# Chain of UniProt P25779 (P25779 whole entry, looked up): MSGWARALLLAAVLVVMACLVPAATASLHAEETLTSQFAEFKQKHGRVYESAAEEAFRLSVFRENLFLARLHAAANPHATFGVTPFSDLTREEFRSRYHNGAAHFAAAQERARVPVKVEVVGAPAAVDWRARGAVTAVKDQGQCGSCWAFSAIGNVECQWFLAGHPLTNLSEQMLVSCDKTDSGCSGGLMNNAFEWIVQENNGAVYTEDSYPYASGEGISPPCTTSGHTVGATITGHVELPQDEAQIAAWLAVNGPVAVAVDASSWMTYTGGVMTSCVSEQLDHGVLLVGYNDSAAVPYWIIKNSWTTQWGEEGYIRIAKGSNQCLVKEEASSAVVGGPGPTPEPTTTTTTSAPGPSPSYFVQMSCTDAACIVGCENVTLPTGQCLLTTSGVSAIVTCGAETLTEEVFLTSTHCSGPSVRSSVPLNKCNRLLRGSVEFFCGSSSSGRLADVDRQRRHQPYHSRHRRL
# Experiment: qHTS Assay for Promiscuous and Specific Inhibitors of Cruzain (without detergent); further: nearly all actives have a fitted effect of over 40% in size;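 on max response, negative = inhibition: plate controls were enzyme without inhibitor for no effect and buffer without enzyme for full effect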
# Conditions: purified cruzain, Z-FR-AMC fluorescence, no detergent
# In short: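 Purified cruzain at 1.5 nM, pre-incubated 15 min with compound at room temperature in 100 mM sodium acetate pH 5.5, 5 mM DTT, 0.00005% Triton X-100. Reaction started with 2 uM Z-FR-AMC; AMC fluorescence increase over 60 s gives rate.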
# Potency means the concentration at half of the fitted maximal effect; tags describe the fitted curve by direction and shape.
SMILES,Potency,"max response, negative = inhibition"
COc1cccc(-c2ccc3c(N)c(C(=O)NCc4ccc(Cl)cc4)sc3n2)c1,"inconclusive: 31.6 µM [inhibitor, single point]",
Cc1ccc(C)c(S(=O)(=O)C(C#N)c2nc3ccccc3nc2N2CC(C)OC(C)C2)c1 (configuration not stated),"inconclusive: 31.6 µM [activator, single point]",
Cc1nc2c(C(=O)NCCc3ccccc3)c[nH]n2c(=O)c1Cl,"inconclusive: 25.1 µM [activator, single point]",
COc1ccc(C=Nc2cccc3c(=O)[nH][nH]c(=O)c23)c2ccccc12,active: 31.6 µM,
O=C(NCCOc1nc(N2CCOCC2)nc(N2CCOCC2)n1)Nc1ccc(Cl)cc1,"inconclusive: 20 µM [activator, partial curve]",
CCOC(=O)c1c(C)oc2c1c1c(c3ccccc32)OCN(Cc2cccnc2)C1,,inactive: -12.1%
CN(C(=O)C(=O)Nc1ccc2nc3n(c(=O)c2c1)CCCCC3)c1cccc(C(F)(F)F)c1,"inconclusive: 25.1 µM [activator, single point]",
COc1cc(/C=N/n2c(-c3ccc4c(c3)NC(=O)CO4)csc2=Nc2cccc(C)c2)ccc1O,,inactive: -19.2%
COc1ccccc1C(=O)Nc1nnc(SCC(=O)Nc2ccc3c(c2)oc2ccccc23)s1,active: 12.6 µM,
CCc1ccc(NC(=O)Cn2c(=O)oc3cc(S(=O)(=O)N4CCCCCC4)ccc32)cc1,"inconclusive: 39.8 µM [activator, single point]",
Cc1c(O)c(CN2CCCC2)cc2c1oc(=O)c1ccccc12,"inconclusive: 25.1 µM [inhibitor, single point]",
CC(=O)c1cccc(N(C(=O)Cn2nnc3ccccc32)C(C(=O)NCc2ccccc2)c2ccc(F)cc2)c1 (configuration not stated),,inactive: -28.3%
Cc1cc(Cl)ccc1Nc1sc(C(=O)c2cc3cc(Cl)ccc3o2)c(N)c1C#N,"inconclusive: 3.98 µM [inhibitor, single point]",
O=C(CC(c1ccco1)C1CCCCC1=O)c1ccco1 (configuration not stated),"inconclusive: 31.6 µM [inhibitor, single point]",
CCCCN(CC)C(=O)CCn1c(=O)c2cccn2c2cccnc21,,inactive: -5.04%
COc1ccccc1C(=O)c1c(N)c(-c2nc(-c3ccccc3)cs2)c2ccccn12,active: 10 µM,
COc1ccccc1-c1noc(-c2ccc(N(C)Cc3ccccc3)c([N+](=O)[O-])c2)n1,,inactive: -23.5%
CCCn1c(SC(C(=O)Nc2cc(C)ccc2OC)c2ccccc2)nc2ccccc2c1=O (configuration not stated),"inconclusive: 39.8 µM [inhibitor, single point]",
Cc1ccc(C)c(NC(=O)Cn2nc(C)c3ccccc3c2=O)c1,"inconclusive: 39.8 µM [activator, single point]",
Cc1cc(NC(=O)CSc2nc(-c3ccco3)cc(C(F)(F)F)n2)no1,active: 20 µM,
CCOC(=O)Nc1ccc(C)cc1C,,inactive: 0.799%
CCOC(=O)c1c(S(=O)(=O)NCC(=O)Nc2ccc(Cl)c(C(F)(F)F)c2)c(C)n(C)c1C,"inconclusive: 20 µM [activator, single point]",
CC(C)OC(=O)c1c(NC(=O)c2cnn3c2NC(c2ccccc2)CC3C(F)(F)F)sc2c1CCCC2 (configuration not stated),"inconclusive: 3.98 µM [inhibitor, single point]",

SMILES,Potency,"max response, negative = inhibition"
COc1ccc(/C=C/C(=O)c2cc(Br)ccc(=O)c2O)cc1,"inconclusive: 39.8 µM [inhibitor, single point]",
Cc1cc2n(n1)CCCN2C(=O)Nc1ccc(Cl)cc1,,inactive: 1.01%
CCCNC(=O)c1c(NC(=O)C2COc3ccccc3O2)sc2c1CCCC2 (configuration not stated),active: 20 µM,
CC1CCN(S(=O)(=O)c2ccc(NN=C(C#N)C#N)cc2)CC1,"inconclusive: 31.6 µM [inhibitor, single point]",
Cc1csc(Sc2nc3c(c(=O)[nH]c(=O)n3C)n2CCCc2ccccc2)n1,"inconclusive: 39.8 µM [inhibitor, single point]",
COc1ccccc1N1CCN(C(=O)CN(c2cc(C)cc(C)c2)S(C)(=O)=O)CC1,"inconclusive: 31.6 µM [activator, single point]",
COc1ccc(N(CC(O)Cn2c3ccccc3c3ccccc32)S(=O)(=O)c2ccccc2)cc1 (configuration not stated),active: 15.8 µM,
O=c1c(-c2cccs2)nc2cnc(Oc3cccc(Cl)c3)nc2n1C[C@H]1CCCO1,,inactive: 7.49%
CCc1cc2c(cc3c(=O)n(CC(=O)N4CCCCC4)nc(CC)n32)s1,,inactive: -6.84%
Cc1cccc(-n2c(=O)c3c(n4cnnc24)-c2ccccc2CC32CCCCC2)c1,"inconclusive: 31.6 µM [activator, single point]",
CCc1ccc(-n2c(SCC(=O)NC(C)CC)nc3n[nH]c(C)c3c2=N)cc1 (configuration not stated),"inconclusive: 39.8 µM [activator, single point]",
CCOc1ccccc1CNC(=O)C1CCCN(c2nc3ccccc3o2)C1 (configuration not stated),"inconclusive: 31.6 µM [activator, single point]",
COc1ccc(NC(=O)Cc2csc(COc3cccc(C)c3)n2)cc1OC,"inconclusive: 39.8 µM [activator, single point]",
Cc1ccc(C)c(S(=O)(=O)c2nnn3c2nc(NCc2cccs2)c2sccc23)c1,"inconclusive: 31.6 µM [inhibitor, single point]",
O=c1cc(N2CCc3ccccc3C2)[nH]c(=O)n1Cc1ccc(F)cc1,"inconclusive: 31.6 µM [inhibitor, single point]",
Cc1oc2ccc(OCc3ccc(F)cc3)cc2c1C(=O)O,,inactive: -11.6%
COc1ccc(N2CCN(c3nc(NCCc4ccc(OC)c(OC)c4)nc(OC)n3)CC2)cc1,"inconclusive: 31.6 µM [activator, single point]",
Cc1c(-c2ccccc2)c(=O)oc2c(CN3CCN(C)CC3)c(O)ccc12,"inconclusive: 25.1 µM [inhibitor, single point]",
Cc1ccc(Oc2ccc3c(c2)C(=O)N(c2cccc4cccnc24)C3=O)cc1,active: 25.1 µM,
COc1ccc(N(C(=O)c2ccco2)S(=O)(=O)c2cc(Cl)c(Cl)cc2Cl)cc1,"inconclusive: 31.6 µM [inhibitor, single point]",
CC(=O)Nc1ccc(S(=O)(=O)N2CCSC2c2ccccc2Cl)cc1 (configuration not stated),"inconclusive: 31.6 µM [activator, single point]",
Cn1c(C(=O)NCc2ccccn2)cc2c(=O)n3ccccc3nc21,"inconclusive: 39.8 µM [activator, single point]",
CCC(C(=O)N1CCN(c2cc(Cl)ccc2C)CC1)n1nc(C)c2sc3ccccc3c2c1=O (configuration not stated),,inactive: -2.61%

SMILES,Potency,"max response, negative = inhibition"
COc1cccc(CNC(=O)CN2N=C(c3ccc(C)cc3)CCC2=O)c1,,inactive: 16.1%
CCC(=O)Nc1ccc(C)cc1-c1nc2ccccc2n(C(C)C(=O)Nc2ccccc2CC)c1=O (configuration not stated),,inactive: 3.83%
O=C1NC(=O)c2cc([N+](=O)[O-])ccc21,,inactive: 11.2%
Cc1nc(NC2CCCCC2)c2nc(-c3ccccc3)n(CCCN3CCCCC3C)c2n1 (configuration not stated),,inactive: 0.903%
COc1ccc(N2CCN(C(=O)C3CC(O)CN3S(=O)(=O)c3ccc([N+](=O)[O-])cc3)CC2)cc1 (configuration not stated),"inconclusive: 39.8 µM [activator, single point]",
Cc1cccc(-c2nc(SCC(=O)NCC3CCCO3)c3c(=O)n(C)c(=O)n(C)c3n2)c1 (configuration not stated),,inactive: 3.27%
Cc1ccccc1N(C)C(=O)c1noc2c1COc1ccccc1-2,,inactive: 12.2%
Cc1ccc(Nc2nc(N)c([N+](=O)[O-])c(N3CCOCC3)n2)cc1C,"inconclusive: 31.6 µM [inhibitor, single point]",
CC(C)(C)C(=O)NC(NC(=S)Nc1sc2c(c1C#N)CCCC2)C(Cl)(Cl)Cl (configuration not stated),"inconclusive: 20 µM [inhibitor, partial curve, poor fit]",
COc1ccccc1[C@@H]1C(c2cccc(C)c2)=NN(c2ccccc2)[C@H]1C(=O)N1CCOC1=O,active: 15.8 µM,
COc1ccc(-c2nc(CS(=O)CC(=O)NC3CCCc4ccccc43)c(C)o2)cc1OC (configuration not stated),"inconclusive: 39.8 µM [activator, single point]",
O=C(COC(=O)c1ccccc1NC(=O)c1ccccc1)c1ccc([N+](=O)[O-])cc1,"inconclusive: 39.8 µM [inhibitor, single point]",
C/C=C/C=N/Nc1nc(-c2ccc([N+](=O)[O-])cc2)cs1,"inconclusive: 20 µM [inhibitor, partial curve]",
COc1ccc(CCNC(=O)c2c(C)oc3nc(C)nc(N4CCOCC4)c23)cc1OC,,inactive: -5.5%
Cc1cc(C)n(-c2nc3ccccc3nc2Nc2cccc(C(=O)NCCc3ccccc3)c2)n1,,inactive: 14%
CC1CCCN(C(=O)c2cccc(S(=O)(=O)Nc3cc(C(F)(F)F)ccc3Cl)c2)C1 (configuration not stated),"inconclusive: 25.1 µM [activator, single point]",
O=[N+]([O-])c1ccc(N/N=C\c2ccccc2OCc2ccccc2)cc1,active: 25.1 µM,
CC(C)(C)c1ccc(C(=O)NC(=S)Nc2sc3c(c2C#N)CCC3)cc1,active: 10 µM,
COc1cccc(-c2nc(Cc3ccc(OC)c(OC)c3)no2)c1,"inconclusive: 31.6 µM [activator, single point]",
Cc1nn(C)c(C)c1/C=C1/CC2C3CC=C4CC(O)CCC4(C)C3CCC2(C)C1=O (configuration not stated),"inconclusive: 39.8 µM [activator, single point]",
COc1ccc(-c2cc(C(=O)Nc3ccccc3SC)no2)cc1,active: 5.01 µM,
